# Source: PubChem BioAssay AID485364 (National Center for Advancing Translational Sciences (NCATS), 2010)
# The whole screen tested about 360,000 compounds, of which about 11,000 (3.1%) were called active. Inconclusive means that the source gave no clear call. Such entries were picked first, then a sample of the others. The call rests on the fitted dose curve; in most records, active means well fitted inhibition curve with a large enough effect; inconclusive means small, poorly fitted or top-dose-only effect; inactive means no such curve, though single readings can be large or run the other way. No potency is given beside an inconclusive call; the fits are too rough.
# Target: Schistosoma mansoni thioredoxin glutathione reductase (TGR) (UniProt Q962Y6)
# Test: qHTS Assay for the Inhibitors of Schistosoma Mansoni Peroxiredoxins; further: nearly all actives have a fitted effect of over 60% in size
# Details: purified TGR, DTNB reduction, TNB absorbance 405 nm; activity change, negative = inhibition: at 114 µM (top of the series) unless noted
# Method in brief: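 Kinetic colorimetric format: TGR-catalysed, NADPH-driven DTNB reduction monitored via TNB absorbance. Enzyme dispensed at 20 nM; compound exposure 15 min at room temperature before reaction start.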
# On the % scale 0 is the no-effect control and ±100 the full control effect; potency means the concentration at half of the fitted maximal effect; tags describe the fitted curve by direction and shape.
SMILES,Potency,"activity change, negative = inhibition"
CCOc1cc(C(=O)NCc2ccc3c(c2)OCO3)cc(OCC)c1OCC,active: 35.5 µM,–
CCn1cc(C(=O)NCc2ccncc2)c(=O)c2cc(F)c(N3CCN(C(=O)c4ccco4)CC3)cc21,"inconclusive [inhibitor, partial curve]",–
CC(=O)N1CN(Cc2ccccn2)Cc2c1sc1c2CCCC1,active: 39.8 µM,–
COc1ccc(C(=O)N/C(=C/c2ccco2)C(=O)N2CCCCCC2)cc1,active: 44.7 µM,–
Cc1cc(C)c(C(=O)CSc2nnc(-c3cccnc3)n2C)c(C)c1,"inconclusive [inhibitor, partial curve]",–
Cc1ccc2c(c1)CC1(CN2C)C(=O)NC(=O)N(c2ccccc2C)C1=O (centres undefined),–,inactive: -33.8%
O=C(/C=C/c1ccc(OCCCF)cc1)N1CCOCC1,"inconclusive [inhibitor, single point]",–
O=C(CSc1nnc(Cc2ccccc2)o1)Nc1cccc(F)c1,"inconclusive [inhibitor, partial curve, poor fit]",–
COc1ccc(C(=O)c2c(NC(C)=O)sc3c2CCN(C(=O)OC(C)(C)C)C3)cc1,"inconclusive [inhibitor, single point]",–
O=c1[nH]c2ccc(Cl)cc2c(-c2ccccc2)c1SC(=S)N1CCOCC1,–,inactive: -4.69%
CC(C)(C)c1cc(CN2CCCCC2)cc(C(C)(C)C)c1O,active: 44.7 µM,–
CCc1c(C)c2ccc(O)c(CN3CCN(c4ccc(F)cc4)CC3)c2oc1=O,–,inactive: -3.25%
COc1ccc(C)cc1S(=O)(=O)N1CCN(C(=O)c2ncoc2-c2ccc(F)cc2)CC1,–,inactive: 2.8%
COc1ccnc(CSC(N)=Nc2ccc(F)cc2)c1,active: 44.7 µM,–
C=CCN1C(=O)NC(=O)/C(=C/c2ccc(OCC(=O)Nc3ccc(C)cc3)cc2)C1=O,"inconclusive [inhibitor, partial curve, poor fit]",–
Nc1ccc2nc3c(c(Cl)c2c1)CCCC3,"inconclusive [inhibitor, partial curve]",–
O=C1CSC(c2cn(-c3ccccc3)nc2-c2ccccc2)N1Cc1ccco1 (centres undefined),"inconclusive [inhibitor, partial curve]",–
C#Cc1ccc([C@@H]2C=C(C(=O)OCC=C)O[C@H](OCc3ccc(CO)cc3)C2)cc1,"inconclusive [inhibitor, partial curve]",–
COc1ccc(N2CCN(S(=O)(=O)c3ccc4c(c3)C(C(C)C)C(=O)N4)CC2)cc1 (centres undefined),–,inactive: -14.3%
Cc1nc2cc(-c3cccc(F)c3)nn2c(C)c1CCC(=O)NCCc1ccccc1,active: 22.4 µM,–
N#Cc1nc(-c2cccc3ccccc23)oc1NCCN1CCCCC1,–,inactive: 5.22%
CCN(CC)c1ccc(/C=C(/C#N)C(=O)NCc2ccccc2)o1,active: 35.5 µM,–
C[C@H]1c2cccc(O)c2C(O)=C2C(=O)C3(O)C(O)=C(C(N)=O)C(=O)[C@@H](N(C)C)[C@@H]3[C@@H](O)[C@@H]21 (some centres undefined),"inconclusive [inhibitor, partial curve]",–
CCCCN(C(=O)c1ccc([N+](=O)[O-])s1)c1c(N)n(CCCC)c(=O)[nH]c1=O,–,inactive: -17.5%
COc1ccc(-c2nn(-c3ccccc3)cc2/C=N/Nc2ccccn2)cc1OC,"inconclusive [inhibitor, single point]",–

SMILES,Potency,"activity change, negative = inhibition"
C=CCOC(=O)C1=C[C@@H](c2ccccc2)C[C@@H](OCc2ccc(CO)cc2)O1,–,inactive: -32%
O=C(O)CCC(=O)Nc1ccc(N=Nc2ccccc2)cc1,–,inactive: -7.51%
C=C1C(=O)O[C@@H]2C[C@@H](C)[C@H]3C=CC(=O)[C@]3(O)C[C@@H]12,active: 35.5 µM,–
Nc1nonc1-n1nnc(C(=O)N/N=C/C=C/c2ccccc2)c1CSC1=NCCS1,–,inactive: -14.2%
COc1ccc(C(C)=O)cc1COC(=O)CSCC(=O)Nc1ccc(C)cc1,active: 35.5 µM,–
COc1ccc(N=Nc2nc3ccc(Br)cc3n2C)cc1,"inconclusive [inhibitor, partial curve]",–
COc1ccc(S(=O)Cc2ccc(C(=O)NCc3cccc(OC)c3)o2)cc1 (centres undefined),active: 25.1 µM,–
O=C1CC(N2CCCCCC2)C(=O)N1c1ccc2c(c1)OCO2 (centres undefined),active: 7.94 µM,–
CCOC(=O)c1cc2n(c1/N=C/N(C)C)-c1ccccc1C2=O,"inconclusive [inhibitor, partial curve]",–
CC(=O)CSc1nnc(-c2ccco2)n1-c1ccccc1,"inconclusive [inhibitor, partial curve]",–
COc1ccc(N(CC(=O)Nc2cc(OC)ccc2OC)S(C)(=O)=O)cc1,"inconclusive [inhibitor, single point]",–
Cc1nc(SC(C)C(=O)NC2CCCCC2C)c2c(C)c(C)sc2n1 (centres undefined),–,inactive: -7.27%
OCCC1CN(Cc2cccn2-c2nccs2)CCN1Cc1ccc(F)c(F)c1 (centres undefined),"inconclusive [inhibitor, partial curve]",–
CN1C2CCC1/C(=C/c1cccn1C)C(=O)/C2=C\c1cccn1C,active: 35.5 µM,–
Cc1nc(S/C(=C/c2ccc(-c3cc(Cl)ccc3C)o2)C(=O)O)n[nH]1,"inconclusive [inhibitor, partial curve]",–
CN(CCC1CCOCC1)C(=O)CC1C(=O)NCCN1Cc1cccc(F)c1 (centres undefined),"inconclusive [inhibitor, partial curve, poor fit]",–
Cc1[nH]c2ccccc2c1Cc1nnc(SCc2ccccc2)o1,"inconclusive [inhibitor, single point]",–
Cc1cccc(OCC(=O)N(Cc2ccco2)c2c(N)n(Cc3ccccc3)c(=O)[nH]c2=O)c1,"inconclusive [inhibitor, partial curve]",–
O=C(/C=C/c1ccc([N+](=O)[O-])o1)NNC(=O)c1ccc(F)cc1,active: 11.2 µM,–
CCOc1ccc(Nc2oc(-c3cccc(Cl)c3)nc2C#N)cc1,"inconclusive [inhibitor, full curve, poor fit]",–
CS(=O)(=O)c1ccc2nc(NC(=O)C3COc4ccccc4O3)sc2c1 (centres undefined),"inconclusive [inhibitor, partial curve]",–
O=C(O)CSc1ncnc2sc3c(c12)CCCC3,–,inactive: 9.85%
O=C(CSc1nnc(-c2ccco2)o1)c1ccccc1Cl,"inconclusive [inhibitor, partial curve]",–
CCC1=C/C(=C\c2ccc3c(c2)OCO3)C(=O)S1,active: 28.2 µM,–
O=C(CCN1CCc2ccccc2C1)c1ccc2c(c1)OCCO2,active: 0.282 µM,–

SMILES,Potency,"activity change, negative = inhibition"
O=[N+]([O-])c1ccc(-c2ccc(/C=N/c3c(-c4ccco4)nc4ccccn34)o2)c(Cl)c1,"inconclusive [inhibitor, partial curve]",–
COCCNC(=S)Nc1cccc2cnccc12,"inconclusive [inhibitor, partial curve]",–
Cc1ccccc1C(=O)N1CCC(C(=O)N2CCN(c3ncccn3)CC2)CC1,–,inactive: 0.0951%
Cc1cc(N2C(=O)CC(N3CCN(C(c4ccccc4)c4ccccc4)CC3)C2=O)no1 (centres undefined),active: 44.7 µM,–
C=CCN1C=C2C(=O)C(C)(OC(=O)CCC(=O)OC)C(=O)C=C2C=C1C1CC1 (centres undefined),"inconclusive [inhibitor, partial curve]",–
C=CCSc1nnc(Cc2cc(=O)[nH]c(=O)[nH]2)n1-c1cc(C)ccc1C,active: 22.4 µM,–
O=C1/C(=C\c2ccc(Cl)c(Cl)c2)N2CCC1CC2,"inconclusive [inhibitor, partial curve]",–
CCOc1cc(/C=C2/NC(=O)N(Cc3ccccc3F)C2=O)ccc1O,"inconclusive [inhibitor, full curve, poor fit]",–
O=Cc1cc2ccccc2nc1SCc1ccc(Cl)c(Cl)c1,–,inactive: 7.99%
Cc1ccc(-n2cc(C(=O)OCc3ccc(F)c(F)c3)c3ccccc3c2=O)cc1,"inconclusive [inhibitor, partial curve]",–
CCn1c(-c2ccccc2SC)n[nH]c1=S,–,inactive: 0%
O=C(CCl)NC1CCCc2ccccc21 (centres undefined),active: 25.1 µM,–
Cc1cccc(NC(=S)NC(NC(=O)c2ccco2)C(Cl)(Cl)Cl)c1 (centres undefined),"inconclusive [inhibitor, full curve]",–
O=C(O)c1ccc2c3c(ncnc13)-c1ccccc1C2=O,active: 50.1 µM,–
C[N+](C)(C)C(Cc1c[nH]c2ccccc12)C(=O)[O-] (centres undefined),"inconclusive [inhibitor, partial curve]",–
CCc1ccc(-n2c(O)c(C(C)=O)c(=O)[nH]c2=O)cc1 (tested in a mixture with another compound),"inconclusive [inhibitor, full curve, poor fit]",–
CC(C)CCN1CCN(Cc2coc3ccccc3c2=O)CC1CCO (centres undefined),"inconclusive [inhibitor, full curve, poor fit]",–
CSc1ccc(CN(C)C(=O)CN2C(=O)NC3(CCCC3)C2=O)cc1,–,inactive: -2.79%
O=c1cc(CN2CCN(Cc3ccccc3)CC2)c2cc(Cl)ccc2o1,–,inactive: -16%
CCC(=O)Nc1nonc1-c1nc2ccccc2n1CCC(C)C,"inconclusive [inhibitor, single point]",–
C/C(=N\NC(=O)c1ccc(NS(=O)(=O)c2cccs2)cc1)c1ccccn1,–,inactive: -10.4%
CSc1cccc(NC(=S)N2CCC(N(C)C3CCCCC3)CC2)c1,active: 44.7 µM,–
Cc1cccc(NC(=O)Cn2c(=O)c3cccn3c3ccccc32)c1C,–,inactive: -1.76%
Cc1ccc(NC(=S)NCCCN2CCOCC2)cc1C,"inconclusive [inhibitor, partial curve]",–
